From PubChem BioAssay (NCI)
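Growth conditions: 96-well plates. Treatment: test compound, 48 hours, 5 concentrations. Analysis: linear interpolation between bracketing concentrations; unreached endpoints set to highest concentration. GI50 marks 50% less growth.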 The source holds more than one record for some entries. The other results are left out here. An entry can have further records. For some assays here: The tests behind the records often covered other concentration ranges, which the source does not state; some values may only mark the edge of a range. For some assays here: The records of an entry are repeated measurements across runs, samples, wells, individuals or studies. Records carry a tag for their origin. Letters count within one entry.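 TGI marks complete inhibition of growth.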

Columns and labels:
Test in all cases: inhibition of tumour cell growth, NCI panel, 48 h
CCRF-CEM leukemia = system: CCRF-CEM leukemia
HCT-116 colon = system: HCT-116 colon
T-47D breast = system: T-47D breast
HCT-15 colon = system: HCT-15 colon
KM12 colon = system: KM12 colon
MCF7 breast = system: MCF7 breast
A498 renal = system: A498 renal
BT-549 breast = system: BT-549 breast
DU-145 prostate = system: DU-145 prostate
MDA-MB-231 breast = system: MDA-MB-231 breast
OVCAR-3 ovarian = system: OVCAR-3 ovarian
OVCAR-4 ovarian = system: OVCAR-4 ovarian
SK-MEL-5 melanoma = system: SK-MEL-5 melanoma
786-0 renal = system: 786-0 renal
COLO 205 colon = system: COLO 205 colon
MALME-3M melanoma = system: MALME-3M melanoma
MOLT-4 leukemia = system: MOLT-4 leukemia
SF-295 CNS = system: SF-295 CNS
SK-MEL-2 melanoma = system: SK-MEL-2 melanoma
UACC-257 melanoma = system: UACC-257 melanoma
UO-31 renal = system: UO-31 renal
CAKI-1 renal = system: CAKI-1 renal
HOP-92 NSCLC = system: HOP-92 NSCLC
K-562 leukemia = system: K-562 leukemia
LXFL 529 NSCLC = system: LXFL 529 NSCLC
NCI/ADR-RES ovarian = system: NCI/ADR-RES ovarian
OVCAR-8 ovarian = system: OVCAR-8 ovarian
RPMI-8226 leukemia = system: RPMI-8226 leukemia
SNB-19 CNS = system: SNB-19 CNS
SR leukemia = system: SR leukemia
SW-620 colon = system: SW-620 colon
UACC-62 melanoma = system: UACC-62 melanoma

`CN1C(=O)/C(=C/c2c(Cl)n(C)c3ccccc23)c2ccccc21` was tested. Which GI50 (CCRF-CEM leukemia) did it give?
Its GI50 is 2.91 µM and 169 nM.

And the GI50 (HCT-116 colon)?
Its GI50 is 3.68 µM and 346 nM.

What about the GI50 (T-47D breast) of the same compound?
The GI50 was 5.52 µM and 254 nM.

For `O=C(c1ccc(/C=C/c2n[nH]c3ccccc23)cc1)N1CCNCC1`, which TGI (HCT-15 colon) is on record?
Its TGI is 3.2 µM [sample A, 1 test] and 40.5 µM [sample B, mean of 2 tests].

What about the GI50 (KM12 colon) of the same compound?
The GI50 was 4.06 µM [sample A, 1 test] and 69 nM [sample B, mean of 2 tests].

And the GI50 (MCF7 breast)?
The GI50 was 1 nM [sample A, 1 test] and 1.49 µM [sample B, 1 test].

`COC(=O)[C@@H](C)C[C@H](Cc1ccccc1)NC(=O)c1csc([C@@H](C[C@H](C(C)C)N(C)C(=O)[C@@H](NC(=O)[C@H]2CCCCN2C)C2CCCCC2)OC(C)=O)n1` was tested. Which TGI (A498 renal) did it give?
Its TGI is 0.9 nM and 85.9 nM.

And the TGI (BT-549 breast)?
The TGI was 68.5 nM and 5.38 nM.

What about the TGI (DU-145 prostate) of the same compound?
Its TGI is 23.8 nM and > 25 µM.

And the GI50 (MCF7 breast)?
The GI50 was < 0.1 nM and 2.5 nM.

And the TGI (MDA-MB-231 breast)?
The TGI was 818 nM and 7.73 nM.

And the GI50 (OVCAR-3 ovarian)?
The GI50 was < 0.1 nM and 2.5 nM.

What about the TGI (OVCAR-3 ovarian) of the same compound?
The TGI was 0.712 nM and > 25 µM.

What about the GI50 (OVCAR-4 ovarian) of the same compound?
Its GI50 is 0.788 nM and 849 nM.

What about the GI50 (SK-MEL-5 melanoma) of the same compound?
The GI50 was 0.134 nM and 2.5 nM.

`CC(=O)Oc1ccccc1C(=O)Nc1ncc([N+](=O)[O-])s1` was tested. Which TGI (786-0 renal) did it give?
Its TGI is > 100 µM [sample A] and 8.92 µM [sample B].

And the TGI (A498 renal)?
The TGI was > 100 µM [sample A] and 1.86 µM [sample B].

And the TGI (BT-549 breast)?
The TGI was 69.6 µM [sample A] and 6.03 µM [sample B].

What about the TGI (COLO 205 colon) of the same compound?
The TGI was 38.6 µM [sample A] and 3.23 µM [sample B].

And the TGI (KM12 colon)?
The TGI was > 100 µM [sample A] and 9.44 µM [sample B].

What about the TGI (MALME-3M melanoma) of the same compound?
Its TGI is > 75.8 µM [sample A] and 5.16 µM [sample B].

And the TGI (MDA-MB-231 breast)?
Its TGI is > 91.3 µM [sample A] and 6.82 µM [sample B].

And the TGI (MOLT-4 leukemia)?
The TGI was > 100 µM [sample A] and 7.76 µM [sample B].

And the TGI (SF-295 CNS)?
The TGI was 52.3 µM [sample A] and 5.13 µM [sample B].

And the TGI (SK-MEL-2 melanoma)?
Its TGI is 56.6 µM [sample A] and 5.08 µM [sample B].

What about the TGI (UACC-257 melanoma) of the same compound?
The TGI was > 84.9 µM [sample A] and 5.45 µM [sample B].

And the TGI (UO-31 renal)?
Its TGI is > 100 µM [sample A] and 6.67 µM [sample B].

With `CC[C@H]1CN2CCc3cc(OC)c(OC)cc3[C@@H]2C[C@@H]1C[C@H]1NCCc2c1[nH]c1ccc(O)cc21` as the compound, how does the TGI (786-0 renal) read?
Its TGI is 73.9 nM, 274 nM, 775 nM.

What about the GI50 (CAKI-1 renal) of the same compound?
The GI50 was 2.61 µM [1 test] and 47.7 nM [mean of 2 tests] and 36.8 nM [mean of 3 tests].

And the TGI (HOP-92 NSCLC)?
The TGI was 74.1 nM, 378 nM, < 13.3 nM.

What about the TGI (K-562 leukemia) of the same compound?
The TGI was 160 nM and 4.05 µM.

And the TGI (LXFL 529 NSCLC)?
Its TGI is 86.2 nM, 56.3 nM, 1.49 µM.

And the TGI (MOLT-4 leukemia)?
Its TGI is 215 nM, 5.61 µM, 2.3 µM.

And the TGI (NCI/ADR-RES ovarian)?
The TGI was 35.2 nM and 13.3 µM.

What about the TGI (OVCAR-8 ovarian) of the same compound?
The TGI was 234 nM, 2.43 µM, 65.3 nM.

What about the TGI (RPMI-8226 leukemia) of the same compound?
The TGI was 77.9 nM, 87.6 nM, 3.29 µM.

And the TGI (SF-295 CNS)?
The TGI was 132 nM, 5.57 µM, 278 nM.

And the TGI (SNB-19 CNS)?
The TGI was 67.3 nM, 8.81 µM, 33.8 nM.

What about the TGI (SR leukemia) of the same compound?
Its TGI is 214 nM and 2.6 µM.

And the TGI (SW-620 colon)?
Its TGI is 72.9 nM, 154 nM, 1.67 µM.

What about the TGI (UACC-62 melanoma) of the same compound?
The TGI was 61.9 nM, 843 nM, 77.3 nM.
